# This is one part of the list.
# B1: PhoQ; a variant is named by its letters at X, in order, P23837 (parent)
# chain: MKKLLRLFFPLSLRVRFLLATAAVVLVLSLAYGMVALIGYSVSFDKTTFRLLRGESNLFYTLAKWENNKLHVELPENIDKQSPTMTLIYDENGQLLWAQRDVPWLMKMIQPDWLKSNGFHEIEADVNDTSLLLSGDHSIQQQLQEVREDDDDAEMTHSVAVNVYPATSRMPKLTIVVVDTIPVELKSSYMVWSWFIYVLSANLLLVIPLLWVAAWWSLRPIEALAKEVRELEEHNRELLNPATTRELTSLVRNLNRLLKSERERYDKYRTTLTDLTHSLKTPLXXLQXXLRSLRSEKMSVSDAEPVMLEQISRISQQIGYYLHRASMRGGTLLSRELHPVAPLLDNLTSALNKVYQRKGVNISLDISPEISFVGEQNDFVEVMGNVLDNACKYCLEFVEISARQTDEHLYIVVEDDGPGIPLSKREVIFDRGQRVDTLRPGQGVGLAVAREITEQYEGKIVAGESMLGGARMEVIFGRQHSAPKDE
# Variants of: B1
# Test: enrichment ratio after two sorts for PhoP signalling (ratio (wild type AVST 3.29)); higher = more functional
# Conditions: with PhoP (E. coli)
row,Variant,enrichment ratio
1,SISC,8.77
2,FLVC,≤ 0.25
3,TTSE,5.44
4,KPLD,≤ 0.25
5,NGQP,≤ 0.25
6,LDHA,≤ 0.25
7,DHEN,≤ 0.25
8,KNNS,≤ 0.25
9,TFTY,≤ 0.25
10,RMWN,≤ 0.25
11,ARTC,≤ 0.25
12,FEIC,9.92
13,GGCN,0.54
14,TCDH,0.414
15,KEGW,≤ 0.25
16,KFQV,≤ 0.25
17,PVNY,≤ 0.25
18,NRMW,≤ 0.25
19,RVWL,≤ 0.25
20,TWWE,≤ 0.25
21,HMAK,≤ 0.25
22,FLRR,≤ 0.25
23,SMAN,6.01
24,HLFS,≤ 0.25
25,DRML,≤ 0.25
26,QTDL,9.92

row,Variant,enrichment ratio
1,TDYF,0.575
2,NNGS,≤ 0.25
3,QPTM,≤ 0.25
4,PGST,≤ 0.25
5,MFST,≤ 0.25
6,FVYL,≤ 0.25
7,CELD,≤ 0.25
8,FPPL,≤ 0.25
9,NAVA,≤ 0.25
10,SWSH,≤ 0.25
11,SNSN,12.5
12,HHNK,≤ 0.25
13,MELM,17.7
14,EQPD,≤ 0.25
15,TWIN,≤ 0.25
16,WPVI,≤ 0.25
17,SWNQ,≤ 0.25
18,VSHY,≤ 0.25
19,KHND,≤ 0.25
20,KSFK,≤ 0.25
21,VILC,0.339
22,WLID,≤ 0.25
23,HFTP,≤ 0.25
24,EIAG,≤ 0.25
25,SQPT,≤ 0.25
26,QGCL,1.15

row,Variant,enrichment ratio
1,QRRM,≤ 0.25
2,INKP,≤ 0.25
3,QRDY,≤ 0.25
4,IRAH,≤ 0.25
5,YFDG,≤ 0.25
6,KQPQ,≤ 0.25
7,FMYA,≤ 0.25
8,SWVS,≤ 0.25
9,QHTT,≤ 0.25
10,YQGT,≤ 0.25
11,NPKY,≤ 0.25
12,PWAP,≤ 0.25
13,IPWG,≤ 0.25
14,AMSK,9.12
15,PSMK,≤ 0.25
16,VKNQ,≤ 0.25
17,TTIY,≤ 0.25
18,LLSC,≤ 0.25
19,KFNQ,≤ 0.25
20,QKGY,≤ 0.25
21,IFFH,≤ 0.25
22,INMF,≤ 0.25
23,SSQV,11.1
24,MRAI,≤ 0.25
25,DTYH,≤ 0.25
26,TNNT,≤ 0.25

row,Variant,enrichment ratio
1,PTDI,≤ 0.25
2,LRTM,≤ 0.25
3,FLFA,0.339
4,FGVT,≤ 0.25
5,DPMD,≤ 0.25
6,SPFH,≤ 0.25
7,IAGW,≤ 0.25
8,LHVT,≤ 0.25
9,GDCQ,≤ 0.25
10,LCAA,≤ 0.25
11,MWVV,≤ 0.25
12,QCMI,≤ 0.25
13,PHRN,≤ 0.25
14,GWMH,≤ 0.25
15,ANCM,6.06
16,HRFR,≤ 0.25
17,DITL,≤ 0.25
18,TSYF,6.56
19,QPMI,≤ 0.25
20,QSMQ,≤ 0.25
21,MLFT,≤ 0.25
22,HKVW,≤ 0.25
23,NQQF,≤ 0.25
24,FRYS,≤ 0.25
25,FARA,≤ 0.25
26,FIFN,≤ 0.25

row,Variant,enrichment ratio
1,GGSA,4.05
2,YMGT,≤ 0.25
3,PDCW,≤ 0.25
4,IFYL,≤ 0.25
5,SLYA,≤ 0.25
6,WTWQ,≤ 0.25
7,AIMW,≤ 0.25
8,FWLT,≤ 0.25
9,VISK,≤ 0.25
10,NKKK,≤ 0.25
11,EYVP,≤ 0.25
12,VDWQ,≤ 0.25
13,TFHC,≤ 0.25
14,FPHY,≤ 0.25
15,LQRK,≤ 0.25
16,CCFF,≤ 0.25
17,IFSY,≤ 0.25
18,IGPD,≤ 0.25
19,DCNS,≤ 0.25
20,SWYV,≤ 0.25
21,SGIR,≤ 0.25
22,GLCY,4.82
23,NKTR,≤ 0.25
24,RWVY,≤ 0.25
25,EMVS,≤ 0.25
26,TLAP,0.342

row,Variant,enrichment ratio
1,ICYN,≤ 0.25
2,VFAR,≤ 0.25
3,ESAA,≤ 0.25
4,MITL,2.48
5,FLAY,≤ 0.25
6,WELN,≤ 0.25
7,RGHG,≤ 0.25
8,PVAL,≤ 0.25
9,LPGW,≤ 0.25
10,LGFK,≤ 0.25
11,ILID,≤ 0.25
12,LINF,0.298
13,DPHC,≤ 0.25
14,NNKI,≤ 0.25
15,GWMV,≤ 0.25
16,MERS,≤ 0.25
17,YAKQ,≤ 0.25
18,MMVV,≤ 0.25
19,GRPS,≤ 0.25
20,IQDT,≤ 0.25
21,FCAC,1.76
22,HVLY,≤ 0.25
23,IKEW,≤ 0.25

# Reference: a collection of fitness landscapes (doi:10.1126/science.1257360)
